# Results taken from the supplement of paper PMC3334620.
# Over roughly 33,000 sequences, “E-score (-0.5 to 0.5)” has its median near -0.043; the highest 2% begin near 0.37. The list shows a part of the results.
# Target: T1, Upc2 (UniProt Q12151)
# T1 sequence: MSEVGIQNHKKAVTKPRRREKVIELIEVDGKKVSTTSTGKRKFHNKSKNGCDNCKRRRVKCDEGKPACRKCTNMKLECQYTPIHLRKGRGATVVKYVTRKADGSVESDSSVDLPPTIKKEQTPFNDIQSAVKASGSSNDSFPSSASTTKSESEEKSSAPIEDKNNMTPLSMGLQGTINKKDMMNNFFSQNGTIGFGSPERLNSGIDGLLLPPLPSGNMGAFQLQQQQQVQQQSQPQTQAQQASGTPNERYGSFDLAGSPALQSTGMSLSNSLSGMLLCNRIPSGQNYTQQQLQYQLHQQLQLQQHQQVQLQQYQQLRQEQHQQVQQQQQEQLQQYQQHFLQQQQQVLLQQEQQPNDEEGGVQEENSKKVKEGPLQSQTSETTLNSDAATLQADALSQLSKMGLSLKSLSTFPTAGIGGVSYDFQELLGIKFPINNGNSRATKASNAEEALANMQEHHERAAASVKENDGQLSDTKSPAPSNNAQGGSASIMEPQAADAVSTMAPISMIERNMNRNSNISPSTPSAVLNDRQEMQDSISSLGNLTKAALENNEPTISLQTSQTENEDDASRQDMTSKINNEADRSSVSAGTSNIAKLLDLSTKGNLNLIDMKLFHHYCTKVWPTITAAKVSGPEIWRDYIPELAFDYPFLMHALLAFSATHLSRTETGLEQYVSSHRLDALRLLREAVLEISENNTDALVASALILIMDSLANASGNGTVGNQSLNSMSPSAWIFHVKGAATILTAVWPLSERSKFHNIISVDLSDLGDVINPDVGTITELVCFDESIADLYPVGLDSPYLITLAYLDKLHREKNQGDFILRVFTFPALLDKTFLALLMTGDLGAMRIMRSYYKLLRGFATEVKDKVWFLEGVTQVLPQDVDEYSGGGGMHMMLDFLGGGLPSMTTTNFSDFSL
# Experiment: PBM E-score (8-mer binding enrichment) (E-score (-0.5 to 0.5)); higher = stronger / more preferred TF binding; most listed sequences are background and not binding sites
# Settings: protein concentration: 200 nM; construct: GST-full length
# In short: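 Yeast transcription factors, full-length or as DNA-binding domains, were expressed with a GST tag using PURExpress in vitro transcription/translation. At about 100-200 nM they were applied to universal all-10-mer Agilent arrays, double-stranded by primer extension on fresh or once-stripped slides. Fluorescent anti-GST detected bound protein, and masliner normalised the scans. E-scores for ungapped eight-base words, pooled with reverse complements, came from the Universal PBM Analysis Suite.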
row,Sequence,PBM E-score
1,AAGATTCG,0.17
2,GCTTAAGA,0.114
3,AAAGCAAG,0.133
4,AGCTAACG,0.163
5,CAATGCTA,-0.0867
6,CGTTTGCA,0.395
7,CCGCTCGC,0.113
8,CAAGGAAC,0.121
9,AGGCCAAA,-0.0735
10,CTGTCGAA,-0.181
11,CTTCCAAA,-0.0564
12,CGGAGCTC,-0.124
13,AACAAATG,0.0774
14,CCTTTTAC,0.207
15,ACTTAGAT,0.139
16,GGACATAC,0.2
17,ATGCAGAC,-0.0838
18,TCAGGCAA,-0.146
19,CCCATGAA,-0.193
20,CAGCTAGA,-0.0195
21,AACGTTTG,0.157
22,CATAGAAC,-0.157
23,AGATAACA,-0.175
24,GTGCTCTA,-0.191
25,CCCGCGAA,-0.0517

row,Sequence,PBM E-score
1,ATCGTAAG,0.354
2,ACTGCCGC,-0.14
3,AGTAAAAC,0.0433
4,CGTGCATC,-0.077
5,GAAGATCC,-0.273
6,AGGACAGG,-0.11
7,CAAAAATG,-0.0709
8,AAAGGTTG,-0.256
9,CCTGACGC,-0.347
10,AACTATGG,-0.138
11,GCTAGGCC,-0.286
12,AGTATTAT,-0.0313
13,AGAACTTC,-0.0685
14,CTATTTGA,-0.103
15,TAATGTCA,-0.164
16,GAAGATAC,0.0367
17,CCCACCCA,-0.0953
18,AACTAGGA,-0.225
19,AGATTGTC,-0.00514
20,GGAGTCAA,-0.104
21,ACCAGAGA,-0.103
22,GGCGAATA,-0.0409
23,GCACTAAA,0.177
24,GTTAACGA,0.442
25,ACTGGACG,-0.12

row,Sequence,PBM E-score
1,CAGCTGGA,-0.0748
2,CTATCACC,-0.0181
3,AGATCCCA,-0.235
4,AGACGCTC,-0.183
5,CTTCTTGA,-0.125
6,CTTTACAA,-0.154
7,AAATACGT,0.109
8,CTCTGCGA,0.0808
9,CTCGTTAC,0.36
10,TATGTCGA,0.143
11,AAGGCTCC,-0.189
12,CCGACCCC,-0.175
13,CTTGTCTA,-0.148
14,AACGAACG,0.419
15,AACTAGTG,-0.112
16,CGTCCGAG,0.0755
17,CAATCCTA,-0.0854
18,AGTCGGGG,-0.132
19,AGACCTAG,-0.0835
20,CCCCTAGC,-0.319
21,GGCACGCA,0.0534
22,ACAGTAAC,-0.124
23,ACGCGGGG,0.0304
24,CACTGCTA,0.0415
25,CGACGAGC,0.0758

row,Sequence,PBM E-score
1,ACTGGGGC,-0.225
2,CCTTAAGC,-0.0529
3,TCGGAGAA,-0.156
4,AGGACATG,-0.0176
5,TCGAGCAA,-0.0394
6,GGCTGACC,-0.0956
7,ATAGGCGA,0.11
8,GATAACCA,0.0331
9,AACAATCG,0.0768
10,CGGTCTAC,0.0369
11,CGTTAGTA,0.106
12,CAGCGTTA,0.0166
13,TAAATAAA,0.191
14,CGGACTTA,-0.21
15,GACAGGTC,-0.227
16,GCAGGCGA,-0.275
17,CATCTACC,-0.0585
18,ATAGTGCG,0.0754
19,AACACGGA,-0.0612
20,ACTAAGTA,-0.101
21,AAGGGCGC,-0.0994
22,CCGGCCAC,-0.272
23,AGGTATGC,-0.00888
24,CAATTCCG,-0.254
25,GACAGACC,0.043

row,Sequence,PBM E-score
1,AACAGACA,-0.101
2,AGATGCAA,-0.149
3,AACAGCAG,-0.0476
4,ATGCGCTC,-0.014
5,ACACCTTA,0.00147
6,TGATTCCA,-0.175
7,ACATAAGA,0.0979
8,ATTGTCGA,-0.197
9,AATGCAGG,-0.141
10,CACATGTC,-0.0847
11,ATCACGAC,0.0267
12,CTGATCAG,-0.204
13,AACAATAG,-0.154
14,CGTATCAA,0.37
15,GCACTTGA,-0.119
16,AGATTCTC,-0.0164
17,AGTGTACC,-0.0597
18,CCGATGAA,0.0307
19,TAGCCCGA,-0.167
20,CTGGTTCC,-0.212
21,GCCGGCGC,-0.134
22,CTTTTTTC,-0.0358
23,CAGGAGCC,-0.0622
24,AGTGCGCA,-0.133
25,ACTACGAT,0.16

row,Sequence,PBM E-score
1,ATGCGCCG,-0.096
2,GTGGCACA,-0.248
3,AGGTTGGC,-0.125
4,ATTAAAAC,0.175
5,GCGCCAAC,-0.0723
6,CGCGGGAG,-0.105
7,TCTTCTCA,-0.144
8,ACCAGAGT,-0.0167
9,AGAGTCCT,-0.311
10,GATCCTGC,0.0718
11,CCCGAAGC,-0.0468
12,TACTGCCA,-0.0597
13,CACTTATG,-0.0747
14,GACCCAGA,0.00127
15,CGTGGTGC,-0.21
16,ATTGGTGA,-0.199
17,GGATGAGA,-0.204
18,GAGTTCAA,0.0381
19,CCACATGC,-0.155
20,ATTACACA,-0.0135
21,AGGCGATC,0.00039
22,AAGATCCC,-0.126
23,ACCGCGAT,0.0631
24,AGGAATCG,0.0922
25,CCGAGCGG,0.166

row,Sequence,PBM E-score
1,AGCCTCAG,-0.109
2,GTCATTTA,-0.204
3,CATGGTGC,-0.107
4,ACTTAGGG,-0.125
5,CGGTTTGC,0.189
6,AAAGATTG,-0.243
7,CTGAATCC,-0.226
8,GGGCGGCA,-0.183
9,ATCACACG,0.0148
10,ATTCTGAA,0.0717
11,CGGTTTGA,-0.091
12,CACCGCGC,0.0554
13,AAGTTTAG,-0.00488
14,AGGGTTTG,-0.00132
15,AAGACTGC,-0.249
16,TAAATAGA,0.091
17,AGCGACTG,0.143
18,ACACAGCA,0.0464
19,CAGGAGCA,-0.114
20,GCGGCCGA,0.0684
21,CATCGTCC,-0.0591
22,AAATTCTC,0.0927
